According to PubChem BioAssay AID2100 (National Center for Advancing Translational Sciences (NCATS), 2009):
Several values for one entry are separate records, joined by “and”; a condition that tells them apart may be missing. Equal values may be shown once. Out of some 300,000 compounds screened, about 1,200 (0.4%) were called active. The shares of active, inactive and inconclusive entries below differ from those in the screen. Calls come from the whole dose curve; as a rule, active = well fitted inhibition curve with a large enough effect; inconclusive = small, poorly fitted or top-dose-only effect, or another doubt; inactive = no such curve, though single readings can be large or run the other way. Potencies beside an inconclusive call are fits to weak or partial responses and may not hold up.

Target: Lysosomal alpha-glucosidase (Homo sapiens) (UniProt P10253)
Test: qHTS Assay for Inhibitors and Activators of Human alpha-Glucosidase Cleavage of Glycogen;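 for activity change, negative = inhibition: 0% = full enzyme reaction and -100% = no-enzyme basal signal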
Details: recombinant GAA, glycogen substrate, Amplex Red glucose oxidase fluorescence; activity change, negative = inhibition: at 76.4 µM (top of the series) unless noted
How it was run: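 Natural-substrate format: glycogen cleavage by 4 nM human enzyme, glucose read by Amplex Red coupling (Ex 573, Em 610 nm). Normalized to enzyme and no-enzyme controls.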
Potency is the fitted concentration of half-maximal effect.

SMILES	Potency	activity change, negative = inhibition
COC(=O)c1nnn(-c2cccc(C)c2)c1N	inconclusive: 1.41 µM [inhibitor, full curve]	–
O=C(O)/C=C/c1ccc(O)c(O)c1	active: 7.94 µM	–
COc1ccc(CCNC(=O)c2cc(S(=O)(=O)N3CCC4(CC3)OCCO4)ccc2F)cc1OC	inconclusive: 8.91 µM [inhibitor, single point]	–
NNC(=O)c1cc(-c2ccc(N)cc2)nc2ccc(Br)cc12	inconclusive: 15.7 µM [inhibitor, partial curve]	–
CCSc1ncc(/C=N/Nc2ccccc2)n1C	inconclusive: 28 µM [inhibitor, partial curve]	–
O=c1oc2c3c4c(cc2s1)CCCN4CCC3	inconclusive: 11.1 µM [inhibitor, partial curve]	–
O=c1c2ccccc2c(C=Nc2ccc(O)cc2)c(O)n1-c1nccs1	inconclusive: 14.1 µM [inhibitor, partial curve]	–
COc1cc(/C=N/NC(=O)C(C)n2nnc3ccccc32)ccc1O (stereo not drawn)	inconclusive: 50.1 µM [inhibitor, partial curve]	–
Cc1cc(C)n(CCNC(=O)c2cc(COc3c(F)cccc3F)on2)n1	inconclusive: 7.08 µM [inhibitor, partial curve]	–
CSc1ncc(C(=O)NCc2ccc(F)cc2)c(-c2ccccc2)n1	–	inactive: -1.61% [at 76.3 µM]
CCc1nc(SCC(=O)NCc2ccc(F)cc2)c2c(=O)n(C)c(=O)n(C)c2n1	inconclusive: 3.16 µM [inhibitor, partial curve]	–
COc1cc(CNc2ncc(-c3ccc(Br)cc3)n2C)cc(OC)c1O	inconclusive: 7.08 µM [inhibitor, full curve]	–
CCOc1ccc(Cc2n[nH]c(=S)n2N)cc1	–	inactive: 3.95%
CCNc1ccc(Br)cc(C(=O)/C=C/c2ccc(Cl)cc2Cl)c1=O	inconclusive: 50.1 µM [inhibitor, single point]	–
Cn1c(NNC(=O)C(c2ccccc2)c2ccccc2)cc(=O)n(C)c1=O	inconclusive: 22.4 µM [inhibitor, partial curve]	–
COc1ccc(Br)c2c1-c1nc(NC(=O)c3ccc(F)cc3)sc1C2	inconclusive: 35.5 µM [inhibitor, single point]	–
Cc1cccc(NC(=O)CC2Nc3cccc4cccc(c34)NC2=O)c1 (stereo not drawn)	inconclusive: 15.7 µM [inhibitor, partial curve] and inconclusive: 14.1 µM [inhibitor, partial curve]	–
COc1cc(C2C(C#N)=C(N)Oc3n[nH]c(-c4cccs4)c32)cc(OC)c1O (stereo not drawn)	active: 17.8 µM	–
COc1ccc(CCNC(=O)c2csc3c2CCCCC3)c(OC)c1	inconclusive: 7.08 µM [inhibitor, single point]	–
COc1ccc(Nc2nc(-c3ccc4c(c3)NC(=O)CO4)cs2)cc1	inconclusive: 15.8 µM [inhibitor, partial curve]	–
NNc1nc(NCc2ccccc2)nc(N2CCOCC2)n1	inconclusive: 9.92 µM [inhibitor, partial curve]	–
CCN1C/C(=C/c2ccc(OC)c(O)c2)C(=O)/C(=C/c2ccc(OC)c(O)c2)C1	inconclusive: 12.6 µM [inhibitor, partial curve, poor fit]	–

SMILES	Potency	activity change, negative = inhibition
Cc1c(/C=C2\NC(=O)NC2=O)c2ccccc2n1C	inconclusive: 12.6 µM [inhibitor, partial curve]	–
COc1cc(/C=N/NC(=O)NC23CC4CC(CC(C4)C2)C3)ccc1O	inconclusive: 50.1 µM [inhibitor, single point]	–
CCCn1nnnc1NCc1ccc(N2CCCC2)cc1	inconclusive: 8.91 µM [inhibitor, partial curve]	–
C/C(=N\Nc1ccccn1)c1ccc(N2CCOCC2)cc1	inconclusive: 14.1 µM [inhibitor, partial curve]	–
CCOc1cc(/C=C/c2ccc3cccc([N+](=O)[O-])c3n2)ccc1O	inconclusive: 39.5 µM [inhibitor, single point]	–
COc1ccc(/C=C/C(=O)N2CCCc3ccccc32)cc1	inconclusive: 31.6 µM [inhibitor, single point]	–
Cc1ccc(-c2nnn3c2nc(NCCc2ccccc2)c2ccccc23)cc1	–	inactive: -15.7% [at 76.3 µM]
Cc1ccc(C2C(C(N)=S)=C(N)OC3=C2C(=O)CC(C)(C)C3)cc1 (stereo not drawn)	inconclusive: 31.6 µM [inhibitor, partial curve]	–
CCOC(=O)Nc1nc(-c2ccccc2)c(C(=O)c2ccccc2)s1	–	inconclusive: 21.6% [activator]
S=c1[nH]nc(NCCCN2CCOCC2)s1	inconclusive: 14.1 µM [inhibitor, partial curve]	–
C/C(=C\c1ccco1)C1Nc2cccc3cccc(c23)N1	inconclusive: 31.6 µM [activator, partial curve]	–
O=C1CC(N2CCN(c3ccccc3O)CC2)C(=O)N1Cc1ccccc1 (stereo not drawn)	active: 3.14 µM	–
CCc1n[nH]c(=S)n1/N=C/c1cc(OC)cc([N+](=O)[O-])c1O	inconclusive: 35.5 µM [inhibitor, partial curve]	–
Cc1ccc(Cl)cc1NC(=O)CCCn1c(=O)c2cccn2c2cccnc21	inconclusive: 6.31 µM [inhibitor, partial curve]	–
CCCc1cc(=O)[nH]c(-n2[nH]c3c(c2=O)CCCC3)n1	–	inconclusive: 70.7% [activator]
CC1(OC(=O)C2CCCC2)C(=O)C=C2C=C(c3ccsc3)N(CCN3CCOCC3)C=C2C1=O (stereo not drawn)	–	inactive: 0.88%
CC(=O)C1=C(c2ccccc2)NC(=O)NC1c1ccc(O)c(O)c1 (stereo not drawn)	inconclusive: 11.2 µM [inhibitor, partial curve]	–
Cc1ccc2c(c1)c1c(n2CC(O)CNC(CO)(CO)CO)CCCC1 (stereo not drawn)	–	inactive: 24.8%
O=C(NNc1ccccc1[N+](=O)[O-])Nc1cccc(Cl)c1	inconclusive: 3.98 µM [inhibitor, full curve]	–
CCOc1ccc(CCNC(=O)c2nn(C)c3c2CSc2ccccc2-3)cc1	–	inactive: -2.76% [at 76.3 µM]
Brc1ccc2nc(-c3cccs3)c(NCC3CCCO3)n2c1 (stereo not drawn)	active: 6.31 µM	–
